# Over roughly 81,000 sequences, “one-hybrid fitness for binding parS DNA” has its median near -0.17; the highest 2% begin near 0.51. Some of the results follow.
# B1: Caulobacter ParB omega fusion; a variant is named by its letters at X, in order, B8GW30 (parent)
# chain: MESVVVGEPGMSEGRRGLGRGLSALLGEVDAAPAQAPGEQLGGSREAPIEILQRNPDQPRRTFREEDLEDLSNSIREKGVLQPILVRPSPDTAGEYQIVAGERAWRAAQRAGLKTVPIMVRELDDLAVLEIGIIENVQRADLNVLEEALSYKVLMEKFERTQENIAQTIGKSXSHVANXMRLLXLPDEVQSYLVSGELTAXHARAIAAAADPVALAKQIIEGGLSVRETEALARKAPNLSAGKSKGGRPPRVKDTDTQALESDLSSVLGLDVSIDHRGSTGTLTITYATLEQLDDLCNRLTRGI
# Variants of: B1
# Experiment: one-hybrid fitness for binding parS DNA (scaled: cognate 1, non-cognate 0); higher = stronger binding
# Settings: with parS DNA site
# Procedure, shortened: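 Pre- and post-selection plasmids were Illumina-sequenced, three replicate libraries were pooled, and any variant with under 10 reads was removed. The libraries were Caulobacter ParB with four specificity codons randomised, selected in E. coli USO through a HIS3 reporter whose site is 19 bp from the promoter. Cells grew 48 hours at 37°C on M9 without histidine, with 0.1 mM IPTG and 5 mM 3-AT. Fitness is the log change in variant-to-wild-type read ratio, rescaled against cognate and non-cognate.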
row,Variant,one-hybrid fitness for binding parS DNA
1,KAAE,≤ 0.2
2,NQNV,≤ 0.2
3,VSSH,≤ 0.2
4,RADG,0.908
5,VEGR,≤ 0.2
6,ADRW,≤ 0.2
7,NMRV,≤ 0.2
8,ASSN,≤ 0.2
9,NCKG,≤ 0.2
10,SLHT,≤ 0.2
11,YLER,≤ 0.2
12,EHAD,≤ 0.2
13,RHCF,≤ 0.2
14,YSIR,≤ 0.2
15,GGKY,≤ 0.2
16,FFSI,≤ 0.2
17,VMLN,≤ 0.2
18,YSQY,≤ 0.2
19,HGAH,≤ 0.2
20,SDPY,≤ 0.2
21,PLNG,≤ 0.2
22,CFTS,≤ 0.2
23,VTPD,≤ 0.2
24,RFFW,≤ 0.2
25,ICTC,≤ 0.2
26,GCSF,≤ 0.2

row,Variant,one-hybrid fitness for binding parS DNA
1,LLKL,≤ 0.2
2,RASA,0.595
3,TSKI,≤ 0.2
4,TAPD,≤ 0.2
5,AVHC,≤ 0.2
6,DKGM,≤ 0.2
7,YMYP,≤ 0.2
8,WMCC,≤ 0.2
9,VKPF,≤ 0.2
10,WSCI,0.213
11,LWST,≤ 0.2
12,KSNE,≤ 0.2
13,ICTV,≤ 0.2
14,WPCG,≤ 0.2
15,QYIK,≤ 0.2
16,PDAA,≤ 0.2
17,RSIC,0.718
18,THLS,≤ 0.2
19,WDIR,≤ 0.2
20,GWYC,≤ 0.2
21,QLCD,≤ 0.2
22,DDQF,≤ 0.2
23,TRND,≤ 0.2
24,EFMA,≤ 0.2
25,PRRP,≤ 0.2
26,SFST,≤ 0.2

row,Variant,one-hybrid fitness for binding parS DNA
1,QTTQ,≤ 0.2
2,LLEW,≤ 0.2
3,NEHF,≤ 0.2
4,FTKT,≤ 0.2
5,LNIC,≤ 0.2
6,HISG,≤ 0.2
7,TGWV,≤ 0.2
8,QHLN,≤ 0.2
9,ERYY,≤ 0.2
10,SVGA,≤ 0.2
11,RSGF,0.274
12,FQHV,≤ 0.2
13,IYLS,≤ 0.2
14,QLSA,≤ 0.2
15,MLDG,≤ 0.2
16,QQLS,≤ 0.2
17,NTCR,≤ 0.2
18,LPSI,≤ 0.2
19,SVAT,≤ 0.2
20,RKIC,0.811
21,LLEA,≤ 0.2
22,LIDL,≤ 0.2
23,DPRI,≤ 0.2
24,EFRR,≤ 0.2
25,RITC,0.962
26,DANR,≤ 0.2

row,Variant,one-hybrid fitness for binding parS DNA
1,KIYC,≤ 0.2
2,TTYS,≤ 0.2
3,LRMT,≤ 0.2
4,GSIY,≤ 0.2
5,TMLS,≤ 0.2
6,GAKH,≤ 0.2
7,RDSL,≤ 0.2
8,AQCS,≤ 0.2
9,ENDY,≤ 0.2
10,AHPM,≤ 0.2
11,QEKR,≤ 0.2
12,LSFG,≤ 0.2
13,ADTE,≤ 0.2
14,PPHR,≤ 0.2
15,SGQA,≤ 0.2
16,SPFC,≤ 0.2
17,HMSC,≤ 0.2
18,RDHC,≤ 0.2
19,RFFT,0.582
20,LPSG,≤ 0.2
21,LSQL,≤ 0.2
22,RLQS,1
23,HVHI,≤ 0.2
24,TYKQ,≤ 0.2
25,WRKN,≤ 0.2
26,VSTV,≤ 0.2

row,Variant,one-hybrid fitness for binding parS DNA
1,SCVR,≤ 0.2
2,VIGT,≤ 0.2
3,VKFT,≤ 0.2
4,LMKA,≤ 0.2
5,GEDS,≤ 0.2
6,PCQC,≤ 0.2
7,VLSD,≤ 0.2
8,RQQA,0.548
9,RHTM,0.224
10,FTHS,≤ 0.2
11,GPRK,≤ 0.2
12,KGRV,≤ 0.2
13,GTWC,≤ 0.2
14,QWIT,≤ 0.2
15,GSLC,≤ 0.2
16,WYTT,≤ 0.2
17,SMES,≤ 0.2
18,TMED,≤ 0.2
19,ADNE,≤ 0.2
20,EASM,≤ 0.2
21,VDAD,≤ 0.2
22,SNEY,≤ 0.2
23,CVEG,≤ 0.2
24,QVFW,≤ 0.2
25,CSVR,≤ 0.2
26,HVFF,≤ 0.2

row,Variant,one-hybrid fitness for binding parS DNA
1,KRHI,≤ 0.2
2,NNSR,≤ 0.2
3,LTDF,≤ 0.2
4,INHN,≤ 0.2
5,RCMW,0.261
6,RWWG,0.641
7,VGHM,≤ 0.2
8,LADS,≤ 0.2
9,KGIS,≤ 0.2
10,SYAI,≤ 0.2
11,AHVY,≤ 0.2
12,APVV,≤ 0.2
13,RWVL,≤ 0.2
14,AHII,≤ 0.2
15,RAGM,0.342
16,TKKR,≤ 0.2
17,RDHS,≤ 0.2
18,PKHT,≤ 0.2
19,QYNS,≤ 0.2
20,GRDT,≤ 0.2
21,VCSW,≤ 0.2
22,NRSR,≤ 0.2
23,VWWR,≤ 0.2
